Laboratory results reported in paper PMC10987122.
Where a chain is given by its changes, count along the chain named. Results are given in words; binding and its absence hold for the method and conditions named. For some assays here: Binding seen in cells or lysates may run through a third protein. Some results given as binding are weak or reduced against the parent protein; the word gives no strength. For some assays here: Where a sequence is shown, tags or fusion partners need not be part of it.

Amino acid sequences for entries named in this document (tags omitted).
UniProt P55884: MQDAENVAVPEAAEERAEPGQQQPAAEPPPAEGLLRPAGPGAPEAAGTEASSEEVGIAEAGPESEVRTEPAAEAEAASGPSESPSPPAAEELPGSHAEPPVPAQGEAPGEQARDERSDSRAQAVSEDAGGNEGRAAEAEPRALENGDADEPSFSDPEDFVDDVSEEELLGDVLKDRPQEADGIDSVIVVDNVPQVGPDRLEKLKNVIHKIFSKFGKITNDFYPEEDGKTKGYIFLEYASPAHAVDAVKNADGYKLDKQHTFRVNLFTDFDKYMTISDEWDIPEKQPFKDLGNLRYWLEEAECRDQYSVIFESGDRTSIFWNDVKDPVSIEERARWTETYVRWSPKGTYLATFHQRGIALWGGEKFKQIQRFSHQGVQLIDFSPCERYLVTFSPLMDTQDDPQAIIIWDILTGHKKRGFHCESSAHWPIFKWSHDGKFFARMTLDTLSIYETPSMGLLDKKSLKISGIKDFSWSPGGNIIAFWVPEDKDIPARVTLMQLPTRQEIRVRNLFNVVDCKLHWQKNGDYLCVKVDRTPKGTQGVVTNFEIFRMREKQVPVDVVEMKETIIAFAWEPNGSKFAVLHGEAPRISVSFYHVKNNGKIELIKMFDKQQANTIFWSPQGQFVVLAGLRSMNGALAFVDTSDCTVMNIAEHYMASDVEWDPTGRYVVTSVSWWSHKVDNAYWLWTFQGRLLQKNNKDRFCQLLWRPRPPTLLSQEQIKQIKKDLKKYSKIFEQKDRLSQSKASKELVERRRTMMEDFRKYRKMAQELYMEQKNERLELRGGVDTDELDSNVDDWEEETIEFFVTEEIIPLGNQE
UniProt Q99613: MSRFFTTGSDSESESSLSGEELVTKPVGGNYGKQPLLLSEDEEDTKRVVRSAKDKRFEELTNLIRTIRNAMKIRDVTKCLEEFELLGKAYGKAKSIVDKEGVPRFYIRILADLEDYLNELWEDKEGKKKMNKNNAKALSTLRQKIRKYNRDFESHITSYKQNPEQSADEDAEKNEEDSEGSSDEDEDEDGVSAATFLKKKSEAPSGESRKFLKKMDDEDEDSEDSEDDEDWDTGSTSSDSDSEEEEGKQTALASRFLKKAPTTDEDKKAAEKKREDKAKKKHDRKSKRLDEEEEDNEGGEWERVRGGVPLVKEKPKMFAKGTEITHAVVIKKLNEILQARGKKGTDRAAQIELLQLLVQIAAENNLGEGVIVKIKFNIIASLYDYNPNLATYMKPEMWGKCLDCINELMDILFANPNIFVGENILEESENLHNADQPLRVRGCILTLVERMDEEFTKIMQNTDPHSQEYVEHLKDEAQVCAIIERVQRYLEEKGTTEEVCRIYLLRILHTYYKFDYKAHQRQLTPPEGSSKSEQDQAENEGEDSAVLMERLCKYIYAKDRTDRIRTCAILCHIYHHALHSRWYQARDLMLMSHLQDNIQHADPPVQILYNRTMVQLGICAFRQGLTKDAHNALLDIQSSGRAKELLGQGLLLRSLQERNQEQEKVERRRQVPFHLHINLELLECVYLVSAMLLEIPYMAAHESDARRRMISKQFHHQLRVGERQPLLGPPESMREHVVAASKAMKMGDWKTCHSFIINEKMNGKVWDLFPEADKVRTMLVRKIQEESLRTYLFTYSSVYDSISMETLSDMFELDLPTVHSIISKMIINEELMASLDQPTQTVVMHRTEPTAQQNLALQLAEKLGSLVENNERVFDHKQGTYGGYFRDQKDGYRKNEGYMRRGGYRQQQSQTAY

Columns and labels:
[1] = molecular target: T1, endogenous YTHDF2 (human (endogenous in MHCC97H)) (UniProt Q9Y5A9); experiment: co-IP; endogenous co-immunoprecipitation in MHCC97H cells
T1 sequence: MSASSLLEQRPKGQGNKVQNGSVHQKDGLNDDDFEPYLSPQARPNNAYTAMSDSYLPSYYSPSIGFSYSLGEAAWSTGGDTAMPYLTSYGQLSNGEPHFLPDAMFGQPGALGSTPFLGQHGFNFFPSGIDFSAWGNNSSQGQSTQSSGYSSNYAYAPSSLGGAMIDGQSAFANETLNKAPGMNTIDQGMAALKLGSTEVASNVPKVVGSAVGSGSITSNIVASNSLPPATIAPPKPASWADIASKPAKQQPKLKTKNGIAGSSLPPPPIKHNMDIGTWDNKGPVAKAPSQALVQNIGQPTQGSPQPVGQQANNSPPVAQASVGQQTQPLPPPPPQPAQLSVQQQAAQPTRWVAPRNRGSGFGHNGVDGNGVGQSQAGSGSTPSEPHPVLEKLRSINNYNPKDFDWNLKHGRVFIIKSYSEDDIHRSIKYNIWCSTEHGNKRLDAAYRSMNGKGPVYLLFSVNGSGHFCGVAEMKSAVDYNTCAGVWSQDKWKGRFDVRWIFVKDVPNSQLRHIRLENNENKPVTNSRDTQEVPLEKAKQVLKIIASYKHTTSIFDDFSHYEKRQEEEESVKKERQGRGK

[2] = molecular target: T2, Flag-labelled YTHDF2 (W278A) (UniProt Q9Y5A9); experiment: co-IP; exogenous co-IP; HEK-293T cells co-transfected with Flag-labelled YTHDF2 and HA-labelled eIF3b constructs for 48 h
T2 sequence: T1 sequence with W278A

Flag-labelled YTHDF2 = molecular target: T3, Flag-labelled YTHDF2 (UniProt Q9Y5A9); experiment: as above
T3 sequence: T1 sequence

GST-labelled YTHDF2 = molecular target: T4, GST-labelled YTHDF2 (UniProt Q9Y5A9); experiment: pull-down; GST-pulldown: purified GST-YTHDF2 with purified His-labelled eIF3 subunit proteins; both purified
T4 sequence: T1 sequence

Substance: endogenous eIF3b (from UniProt P55884 1-814)
- binding [1]: binds

Substance: HA-labelled eIF3b (from UniProt P55884 1-814)
- binding [2]: no binding
- binding (Flag-labelled YTHDF2): binds

Substance: His-labelled eIF3b (from UniProt P55884 1-814)
- binding (GST-labelled YTHDF2): binds

Substance: His-labelled eIF3c (from UniProt Q99613 1-913)
- binding (GST-labelled YTHDF2): binds
